The list shows a part of the results.
T1: UNK ZnF1-3 (human, UniProt Q9C0B0 31-174)
T1 sequence: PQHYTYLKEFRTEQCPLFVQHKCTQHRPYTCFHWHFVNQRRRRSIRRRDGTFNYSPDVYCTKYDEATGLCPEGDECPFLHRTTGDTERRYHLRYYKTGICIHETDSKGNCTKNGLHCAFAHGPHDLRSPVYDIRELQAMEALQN

B1: 123086542_123086662_582_3pUTR_ENSMUSG00000031822_ENSMUST00000034279|mouse|control|control (ssRNA)
RNA: GGGAGUUCUACAGUCCGACGAUCGGGAGUGCUGGGGACACUGUGACCCCCGGGGGGGACGAUGAUGGGGCCCAUGGGCACUCGUUUGGGCGUGCUAGCUGGAGAGCUAUGGUUGGUGGCUGGAGAGGACACUGGAGAUGACUCCAACAGAGGAUUGAGCAUCA
B2: chrX:70776531:70776532:+_ENSG00000147162_ENST00000373719|perfect_dup|FALSE|FALSE (ssRNA)
RNA: GGGAGUUCUACAGUCCGACGAUCCUGUUGCAGUACACUUGCUAAAUUGGAAUGUGCAGCAGCAAACUCUGGGAAGACUUCUAAUGCUUUGCGAUACAGGCGAACUGCCUCUUCAAUGUUGCCCUGUUCCCGUUUGAUGUUGGCCAACAGAGGAUUGAGCAUCA
B3: 171560771_171560891_3747_CDS_ENSG00000117523_ENST00000495585|human|control|control (ssRNA)
RNA: GGGAGUUCUACAGUCCGACGAUCCUUCUACUUUUUCCUGACAGACCCCAGGAGGGUCGGUCAGUGUUUCAGGAGGUUUACUUGAAUCACUGUCCACUUUCUGGGCUUUGCCUCCUCCUAUCUGUUUGCUCUGUUGCUGUUCAGCAACAGAGGAUUGAGCAUCA
B4: chr18:58099821:58099822:+_ENSMUSG00000024597_ENSMUST00000115366|mus_hu|motif|central (ssRNA)
RNA: GGGAGUUCUACAGUCCGACGAUCAUUUUCUUUCUUUGGUUUGGUAUUGAUAUCUCCUAGAACCAUGAUAUCAGAAAAGUCGGUCCGGAACUUGCUAAGCAAAGUAGCCAUCGCUCUCCGGUCAUGGUCUAUUCUGUUUAUCUUCAACAGAGGAUUGAGCAUCA
B5: chr18:24791317:24791318:+_ENSMUSG00000024271_ENSMUST00000025120|mus_hu|FALSE|FALSE (ssRNA)
RNA: GGGAGUUCUACAGUCCGACGAUCACUCCCAGUGAAGAAAUACUUGCUGUCAGGACUCCAAUCACAAGACCAAAUAAUUCUACUGUGCACAGAAGUAAUUUUGUUGGUGAAGGCAAAAAGACUAAAAACUGGCUCGAACUCAGGCAACAGAGGAUUGAGCAUCA
B6: chr2:155479361:155479362:-_ENSMUSG00000038324_ENSMUST00000041059|mus_mus|FALSE|FALSE (ssRNA)
RNA: GGGAGUUCUACAGUCCGACGAUCCCACUCCUCCAGUUCUUGAAGGAAGCUGGCUGUGCCCGUUGACUCUGACACUUUCCUAGUUGCCAGUUUGCAAAGCCGUUCCACAAAGCCAGGGAUGCUGAGAAGAGCAGCUUGGUUGAUCAACAGAGGAUUGAGCAUCA

These binders were tested against T1, UNK ZnF1-3 (assay: nsRBNS (natural sequence RNA bind-n-seq); RBNS binding buffer (assumed for nsRBNS): 25 mM Tris pH 7.5, 150 mM KCl, 3 mM MgCl2, 0.01% Triton X-100, 500 ug/ml BSA, 20 U/ml SUPERase-In, 4 C; UNK is unkempt and MSI1 is Musashi-1; names of the RNAs are library labels; protein concentration not given here; high values mean tight binding).

Binder	binding signal [enrichment R]
B1	1.29
B2	1.06
B3	0.41
B4	0.262
B5	2.14
B6	0.777
